# Laboratory results taken from the supplement of paper PMC8728848.
# The list shows a part of the results.
# B1: ConA (Canavalia ensiformis), P02866 (protein)
# chain: MAISKKSSLFLPIFTFITMFLMVVNKVSSSTHETNALHFMFNQFSKDQKDLILQGDATTGTDGNLELTRVSSNGSPQGSSVGRALFYAPVHIWESSAVVASFEATFTFLIKSPDSHPADGIAFFISNIDSSIPSGSTGRLLGLFPDANVIRNSTTIDFNAAYNADTIVAVELDTYPNTDIGDPSYPHIGIDIKSVRSKKTAKWNMQNGKVGTAHIIYNSVDKRLSAVVSYPNADSATVSYDVDLDNVLPEWVRVGLSASTGLYKETNTILSWSFTSKLKSNEIPDIATVV
# Columns and labels:
# Test in all cases: glycan array binding signal (z-score within array); higher = stronger binding
# Settings in all cases: glycan notation: IUPAC condensed, linker removed
# [1] = molecular target: Man(a1-2)Man(a1-3)[Man(a1-6)]Man(a1-6)[Man(a1-2)Man(a1-3)]Man(b1-4)GlcNAc(b1-4)GlcNAc
# Procedure, shortened: (§1)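 The binding signal is a Z-score computed within each array and averaged over linkers. Arrays of the same protein sequence at different concentrations or buffers were also averaged together. Data originate from 3228 arrays in the Consortium for Functional Glycomics database, kept only where the protein sequence was available.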
# [2] = molecular target: Man(a1-2)Man(a1-6)[Man(a1-3)]Man(a1-6)[Man(a1-2)Man(a1-2)Man(a1-3)]Man
# Procedure, shortened: as §1
# [3] = molecular target: Man(a1-2)Man(a1-6)[Man(a1-3)]Man(a1-6)[Man(a1-2)Man(a1-2)Man(a1-3)]Man(b1-4)GlcNAc(b1-4)GlcNAc
# Procedure, shortened: as §1
# [4] = molecular target: Man(a1-3)[Man(a1-6)]Man
# Procedure, shortened: as §1
# [5] = molecular target: Man(a1-3)[Man(a1-6)]Man(a1-6)[Man(a1-2)Man(a1-3)]Man(b1-4)GlcNAc(b1-4)GlcNAc
# Procedure, shortened: as §1
# [6] = molecular target: Man(a1-3)[Man(a1-6)]Man(a1-6)[Man(a1-3)]Man
# Procedure, shortened: as §1
# [7] = molecular target: Man(a1-3)[Man(a1-6)]Man(a1-6)[Man(a1-3)]Man(b1-4)GlcNAc(b1-4)GlcNAc
# Procedure, shortened: as §1
# [8] = molecular target: Man(a1-3)[Man(a1-6)]Man(b1-4)GlcNAc(b1-4)GlcNAc
# Procedure, shortened: as §1
# [9] = molecular target: Man(a1-6)Man
# Procedure, shortened: as §1
# [10] = molecular target: Man(b1-4)GlcNAc
# Procedure, shortened: as §1
# [11] = molecular target: Neu5Ac(a2-3)Gal
# Procedure, shortened: as §1
# [12] = molecular target: Neu5Ac(a2-3)Gal(b1-3)GalNAc
# Procedure, shortened: as §1
# [13] = molecular target: Neu5Ac(a2-3)Gal(b1-3)GalNAc(b1-3)Gal(a1-4)Gal(b1-4)Glc
# Procedure, shortened: as §1
# [14] = molecular target: Neu5Ac(a2-3)Gal(b1-3)GalNAc(b1-3)Gal(b1-4)GlcNAc
# Procedure, shortened: as §1
# [15] = molecular target: Neu5Ac(a2-3)Gal(b1-3)GalNAc(b1-4)[Neu5Ac(a2-3)]Gal(b1-4)Glc
# Procedure, shortened: as §1
# [16] = molecular target: Neu5Ac(a2-3)Gal(b1-3)GalNAc(b1-4)[Neu5Ac(a2-8)Neu5Ac(a2-3)]Gal(b1-4)Glc
# Procedure, shortened: as §1
# [17] = molecular target: Neu5Ac(a2-3)Gal(b1-3)GalNAc6S
# Procedure, shortened: as §1
# [18] = molecular target: Neu5Ac(a2-3)Gal(b1-3)GlcNAc
# Procedure, shortened: as §1
# [19] = molecular target: Neu5Ac(a2-3)Gal(b1-3)GlcNAc(b1-2)Man(a1-3)[Neu5Ac(a2-3)Gal(b1-3)GlcNAc(b1-2)Man(a1-6)]Man(b1-4)GlcNAc(b1-4)GlcNAc
# Procedure, shortened: as §1
# [20] = molecular target: Neu5Ac(a2-3)Gal(b1-3)GlcNAc(b1-3)Gal(b1-3)GlcNAc
# Procedure, shortened: as §1
# [21] = molecular target: Neu5Ac(a2-3)Gal(b1-3)GlcNAc(b1-3)Gal(b1-4)GlcNAc
# Procedure, shortened: as §1
# [22] = molecular target: Neu5Ac(a2-3)Gal(b1-3)GlcNAc(b1-3)GalNAc
# Procedure, shortened: as §1
# [23] = molecular target: Neu5Ac(a2-3)Gal(b1-3)GlcNAc6S
# Procedure, shortened: as §1
# [24] = molecular target: Neu5Ac(a2-3)Gal(b1-3)[Fuc(a1-4)]GlcNAc
# Procedure, shortened: as §1
# [25] = molecular target: Neu5Ac(a2-3)Gal(b1-3)[Fuc(a1-4)]GlcNAc(b1-3)Gal(b1-3)[Fuc(a1-4)]GlcNAc
# Procedure, shortened: as §1
# [26] = molecular target: Neu5Ac(a2-3)Gal(b1-3)[Fuc(a1-4)]GlcNAc(b1-3)Gal(b1-4)[Fuc(a1-3)]GlcNAc
# Procedure, shortened: as §1
# [27] = molecular target: Neu5Ac(a2-3)Gal(b1-3)[Neu5Ac(a2-3)Gal(b1-4)]GlcNAc
# Procedure, shortened: as §1
# [28] = molecular target: Neu5Ac(a2-3)Gal(b1-3)[Neu5Ac(a2-6)]GalNAc
# Procedure, shortened: as §1
# [29] = molecular target: Neu5Ac(a2-3)Gal(b1-4)Glc
# Procedure, shortened: as §1
# [30] = molecular target: Neu5Ac(a2-3)Gal(b1-4)GlcNAc
# Procedure, shortened: as §1
# [31] = molecular target: Neu5Ac(a2-3)Gal(b1-4)GlcNAc(b1-2)Man(a1-3)[GlcNAc(b1-2)Man(b1-4)GlcNAc(b1-2)Man(a1-6)]Man(b1-4)GlcNAc(b1-4)GlcNAc
# Procedure, shortened: as §1
# [32] = molecular target: Neu5Ac(a2-3)Gal(b1-4)GlcNAc(b1-2)Man(a1-3)[Neu5Ac(a2-3)Gal(b1-4)GlcNAc(b1-2)Man(a1-6)]Man(b1-4)GlcNAc(b1-4)GlcNAc
# Procedure, shortened: as §1
# [33] = molecular target: Neu5Ac(a2-3)Gal(b1-4)GlcNAc(b1-2)Man(a1-3)[Neu5Ac(a2-6)Gal(b1-4)GlcNAc(b1-2)Man(a1-6)]Man(b1-4)GlcNAc(b1-4)GlcNAc
# Procedure, shortened: as §1
# [34] = molecular target: Neu5Ac(a2-3)Gal(b1-4)GlcNAc(b1-3)Gal
# Procedure, shortened: as §1
# [35] = molecular target: Neu5Ac(a2-3)Gal(b1-4)GlcNAc(b1-3)Gal(b1-3)GlcNAc
# Procedure, shortened: as §1
binder,measurement,setting,value
B1,glycan array binding signal (z-score),[1],3.79
same,glycan array binding signal (z-score),[2],7.39
same,glycan array binding signal (z-score),[3],4.46
same,glycan array binding signal (z-score),[4],5.51
same,glycan array binding signal (z-score),[5],4.75
same,glycan array binding signal (z-score),[6],4.27
same,glycan array binding signal (z-score),[7],3.83
same,glycan array binding signal (z-score),[8],3.48
same,glycan array binding signal (z-score),[9],-0.204
same,glycan array binding signal (z-score),[10],-0.272
same,glycan array binding signal (z-score),[11],-0.283
same,glycan array binding signal (z-score),[12],-0.278
same,glycan array binding signal (z-score),[13],-0.203
same,glycan array binding signal (z-score),[14],-0.314
same,glycan array binding signal (z-score),[15],-0.252
same,glycan array binding signal (z-score),[16],-0.248
same,glycan array binding signal (z-score),[17],-0.279
same,glycan array binding signal (z-score),[18],-0.274
same,glycan array binding signal (z-score),[19],-0.354
same,glycan array binding signal (z-score),[20],-0.175
same,glycan array binding signal (z-score),[21],-0.256
same,glycan array binding signal (z-score),[22],-0.092
same,glycan array binding signal (z-score),[23],-0.136
same,glycan array binding signal (z-score),[24],-0.242
same,glycan array binding signal (z-score),[25],-0.22
same,glycan array binding signal (z-score),[26],-0.056
same,glycan array binding signal (z-score),[27],-0.255
same,glycan array binding signal (z-score),[28],0.093
same,glycan array binding signal (z-score),[29],-0.26
same,glycan array binding signal (z-score),[30],-0.29
same,glycan array binding signal (z-score),[31],-0.041
same,glycan array binding signal (z-score),[32],2.21
same,glycan array binding signal (z-score),[33],-0.267
same,glycan array binding signal (z-score),[34],-0.169
same,glycan array binding signal (z-score),[35],-0.263
